Measured values: PubChem BioAssay (NCI)
Where “and” joins values, the source holds several entries; their conditions need not be identical. Identical values can stand only once.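 Compound exposure: 48 hours, 5 concentrations, 96-well plates. Abbreviation: GI50, concentration required for 50% inhibition of growth. TGI: concentration producing complete growth inhibition.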

system: NCI-H322M lung; test: NCI tumour cell line growth inhibition, 48 h

For `N#CSc1c[nH]c2ccc(/C=C/C(=O)/C=C(O)/C=C/c3ccc4[nH]cc(SC#N)c4c3)cc12`, which GI50 is on record?
Its GI50 is 16 µM.

And the TGI?
The TGI was > 100 µM.

For `CN(C)N1C(=C(C#N)C#N)C(c2ccccc2)CC1C#N` (configuration not stated), which TGI is on record?
The TGI was > 100 µM.

Which TGI does the source give for `O=c1[nH]c2c(C(F)(F)F)c(Cl)c(-c3ccccc3)nc2o1` here?
The TGI was 40.4 µM.

Which TGI does the source give for `CC(C)(Sc1cc(C(C)(C)C)c(O)c(C(C)(C)C)c1)Sc1cc(C(C)(C)C)c(O)c(C(C)(C)C)c1` here?
The TGI was > 100 µM.

For `CCOC(=O)CCCN`, which TGI is on record?
Its TGI is > 100 µM.

How did the TGI turn out when `O=C(c1ccccc1)[C@H]1Nc2ccc(Cl)cc2[C@H]2c3ccccc3O[C@H]21` was run?
Its TGI is 28 µM.

With `COc1cc2ncnc(Nc3cccc(Br)c3)c2cc1OC` as the compound, how does the TGI read?
The TGI was 46.3 µM.

Which TGI does the source give for `COc1cc(O)c2c(=O)c3cccc(C)c3[nH]c2c1` here?
The TGI was > 10 µM.

For `O=C(CSc1nc2ccccc2c(=O)n1-c1ccccc1)N=Nc1c(O)[nH]c2ccc(Br)cc12`, which TGI is on record?
The TGI was 13 µM.

Which results are given for `CC[C@@H]1C(=O)N(C)c2cnc(Nc3ccc(C(=O)NC4CCC(N5CCN(CC6CC6)CC5)CC4)cc3OC)nc2N1C(C)C` (some centres not stated)?
GI50: 0.0425 µM and 0.0454 µM; TGI: > 10 µM and 9.7 µM

`COc1cc2c(cc1OCCCCCOc1ccc(-c3nc4ccccc4s3)cc1)N=C[C@@H]1CCCN1C2=O` was tested. Which GI50 did it give?
The GI50 was 7.78 µM.

And the TGI?
Its TGI is > 74.9 µM.

`CC(C)C(Sc1nc(-c2ccccc2)c(-c2ccccc2)[nH]1)C(=O)N/N=C/c1ccc(Cl)cc1` (configuration not stated) was tested. Which TGI did it give?
The TGI was > 100 µM.

For `O=c1[nH]nc(-c2ccc3ccccc3c2)[nH]1`, which TGI is on record?
The TGI was > 100 µM.

How did the TGI turn out when `CCOP(=O)(OCC)C(C(=O)OC)C(=O)C(=O)Nc1cccc([N+](=O)[O-])c1` (configuration not stated) was run?
The TGI was > 100 µM.

For `O=C(Nc1ccccc1/C=C/c1n[nH]c2ccccc12)c1ccccc1`, which GI50 is on record?
The GI50 was 4.8 µM.

What about the TGI of the same compound?
The TGI was 18.2 µM.

Which GI50 does the source give for `CCn1c(-c2nonc2N)nc2cnc(Oc3cccc(NC(=O)c4ccc(OCCN5CCOCC5)cc4)c3)cc21` here?
Its GI50 is 1.33 µM.

What about the TGI of the same compound?
Its TGI is > 25 µM.

For `CCCCCCc1cc2cc(C(=O)Nc3nc(C45CC6CC(CC(C6)C4)C5)cs3)c(=O)oc2cc1O`, which TGI is on record?
Its TGI is 57.6 µM.

With `O=c1c(-c2cccc3ccccc23)c(-c2cccc3ccccc23)c1=O` as the compound, how does the TGI read?
Its TGI is > 100 µM.

With `CCCCCCCCCCCC(c1ccccc1)[N+](C)(C)C` (configuration not stated) as the compound, how does the GI50 read?
Its GI50 is 2.28 µM.

What about the TGI of the same compound?
The TGI was 7.46 µM.

For `C[C@]12CC[C@H]3[C@@H](CCC4=CC(=O)CC[C@@]43C)[C@]1(O)CC[C@]2(O)C(=O)CO`, which TGI is on record?
The TGI was > 100 µM.

Which TGI does the source give for `OC1CCN2Cc3ccccc3N=C12` (configuration not stated) here?
Its TGI is > 100 µM.

With `COc1ccc(OC)c([N+](=O)[O-])c1-c1nc2sc(Cl)cn2c1/C=N/N=C(N)N` as the compound, how does the TGI read?
Its TGI is 39.5 µM.

Which GI50 does the source give for `C=CCn1c(SCC(=O)Nc2ccc(C(=O)/C=C/c3cc(OC)c(OC)c(OC)c3)cc2)nnc1-c1cc(OC)c(OC)c(OC)c1` here?
The GI50 was 6.85 µM.

What about the TGI of the same compound?
The TGI was 38.9 µM.

With `CCC(=O)N1C(=S)SC[C@H]1C(=O)OC` as the compound, how does the TGI read?
Its TGI is > 100 µM.

`Cc1ccc(S(=O)(=O)N(CC(O)COc2ccccc2)c2c(F)c(F)c(F)c(F)c2F)cc1` (configuration not stated) was tested. Which TGI did it give?
The TGI was 62.8 µM.

Which GI50 does the source give for `CN1CCN(c2ccc3nc(-c4[nH]ncc4Nc4ncnc5[nH]ccc45)[nH]c3c2)CC1` here?
The GI50 was 0.322 µM.

What about the TGI of the same compound?
The TGI was 2.59 µM.

With `CC1COS(=O)N1c1ccccc1` (configuration not stated) as the compound, how does the TGI read?
Its TGI is > 100 µM.

With `C[C@]12CC[C@H]3[C@@H](CC=C4C[C@@H](N5CCCC5)CC[C@@]43C)[C@@H]1C/C(=C\c1ccc([N+](=O)[O-])cc1)[C@@H]2O` as the compound, how does the TGI read?
Its TGI is 37.1 µM.

Which GI50 does the source give for `CC[O-].CC[O-].[O-]c1ccccc1C=NC12CC3CC(CC(C3)C1)C2.[O-]c1ccccc1C=NC12CC3CC(CC(C3)C1)C2.[Ti+4]` here?
The GI50 was > 100 µM.

And the TGI?
Its TGI is > 100 µM.

Which TGI does the source give for `COc1nc2ncc([C@@H](OC(C)=O)[C@@H](COC(C)=O)OC(C)=O)nc2c(=O)n1C` here?
Its TGI is > 100 µM.

Which TGI does the source give for `CN(C)CC1CCC/C(=C\c2ccc(Cl)c(Cl)c2)C1=O` (configuration not stated) here?
Its TGI is 28.9 µM.

`COc1ccc(/C=C2\C(=O)N(C(=O)c3ccc(NC(C)=O)cc3)N=C2C)cc1OC` was tested. Which TGI did it give?
Its TGI is > 100 µM.

`Fc1ccc(F)c(C=NC23CC4CC(CC(C4)C2)C3)c1` was tested. Which TGI did it give?
The TGI was > 10 µM.

`COc1ccccc1C1C(C#N)=C(N)SC(N)=C1C#N` was tested. Which GI50 did it give?
Its GI50 is > 100 µM.

And the TGI?
The TGI was > 100 µM.

With `CN(c1ccccc1)c1nc(=[N+](C)C)ss1` as the compound, how does the TGI read?
Its TGI is > 100 µM.

How did the GI50 turn out when `CCOc1cc(/C=C/C(=O)CC(=O)/C=C/c2ccc(OC(=O)CNc3nc4ccc(OC)cc4s3)c(OCC)c2)ccc1OC(=O)CNc1nc2ccc(OC)cc2s1` was run?
Its GI50 is 13.9 µM.

And the TGI?
The TGI was 27.7 µM.

With `O=S(=O)(O)c1cc(O)c(N=NC2S(=O)(=O)OCCOS2(=O)=O)c2ccccc12` as the compound, how does the TGI read?
Its TGI is > 100 µM.

For `CCOP(=O)(OCC)/C(C#N)=C/c1nc[nH]c1C`, which TGI is on record?
Its TGI is > 100 µM.

With `Clc1ccc(NCNC2Nc3ccccc3N2)cc1Cl` as the compound, how does the TGI read?
The TGI was > 100 µM.

With `CN1CCC2(CC1)C(=O)Nc1cc(NC(=O)c3ccc4c(c3)C[C@@H]3C(C)(C)[C@H](O)[C@H](F)C[C@@]3(C)O4)ccc12` as the compound, how does the GI50 read?
The GI50 was 25.2 µM.

What about the TGI of the same compound?
Its TGI is > 100 µM.

Which TGI does the source give for `CCCCCCCCCCCCCOCCOCCOCCCCC(O)CCCCCCCCCC1=C[C@H](C)OC1=O` (some centres not stated) here?
Its TGI is 48.6 µM.

`Cc1cc(NC(=O)NCCCOc2ccc(N3C(N)=NC(N)=NC3(C)C)cc2Cl)ccc1S(=O)(=O)F` was tested. Which GI50 did it give?
The GI50 was 1.58 µM.

What about the TGI of the same compound?
The TGI was > 93.3 µM.

For `O=C(c1ccccc1)c1nc2ccc(Cl)cc2cc1C(Br)Br`, which TGI is on record?
Its TGI is 1.24 µM.

Which TGI does the source give for `CC1=NN(c2ccccc2)C(=O)/C1=C1\SC(c2ccccc2)(c2ccccc2)c2ccccc21` here?
The TGI was > 100 µM.

For `C=C(C)[C@@H]1CC[C@]2(C(=O)OC)CC[C@]3(C)[C@H](CC[C@@H]4[C@@](C)(CCc5nn[nH]n5)[C@H](C(=C)C)CC[C@]43C)[C@@H]12`, which GI50 is on record?
Its GI50 is 17.4 µM.

And the TGI?
The TGI was 38 µM.

With `CC(Nc1cccc(Cl)c1)c1ccncc1` (configuration not stated) as the compound, how does the TGI read?
The TGI was > 100 µM.

For `Cc1ccc(/C=C/C(=O)c2ccc(F)cc2)s1`, which GI50 is on record?
The GI50 was 11.5 µM.

What about the TGI of the same compound?
Its TGI is 25.1 µM.
